Molecules are shown by their SMILES. Over roughly 110,000 compounds, “z-score” has its median near -0.1; the highest 2% begin near 2. This is one part of the list. Activity calls are given as the source filed them.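 Rule for the calls: active = z-score in the third read window above 3 or below -3; inactive = the rest.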 Non-standard residues stand in square brackets, D forms with d. Residues, ends and D or L forms follow the SMILES beside them. *: point of attachment. Hyp = O=C(O)[CH]1C[CH](O)CN1; Cbz = O=C(OCc1ccccc1)*; OBn = c1ccc(CO*)cc1

The target of this test is Metabotropic glutamate receptor 8 (Rattus norvegicus) (UniProt P70579). Description: mGluR8 Gi/Go-coupled signaling modulation – cell-based, rat, thallium flux, HTS, primary screen (AID 488969). Conditions: HEK293 rat mGluR8, GIRK (G protein-gated inwardly rectifying potassium channel) thallium flux, FluoZin2; at 10 µM; stronger effect = higher value; submaximal glutamate (EC20) added with thallium.
Chain of UniProt P70579 (P70579 whole entry, looked up): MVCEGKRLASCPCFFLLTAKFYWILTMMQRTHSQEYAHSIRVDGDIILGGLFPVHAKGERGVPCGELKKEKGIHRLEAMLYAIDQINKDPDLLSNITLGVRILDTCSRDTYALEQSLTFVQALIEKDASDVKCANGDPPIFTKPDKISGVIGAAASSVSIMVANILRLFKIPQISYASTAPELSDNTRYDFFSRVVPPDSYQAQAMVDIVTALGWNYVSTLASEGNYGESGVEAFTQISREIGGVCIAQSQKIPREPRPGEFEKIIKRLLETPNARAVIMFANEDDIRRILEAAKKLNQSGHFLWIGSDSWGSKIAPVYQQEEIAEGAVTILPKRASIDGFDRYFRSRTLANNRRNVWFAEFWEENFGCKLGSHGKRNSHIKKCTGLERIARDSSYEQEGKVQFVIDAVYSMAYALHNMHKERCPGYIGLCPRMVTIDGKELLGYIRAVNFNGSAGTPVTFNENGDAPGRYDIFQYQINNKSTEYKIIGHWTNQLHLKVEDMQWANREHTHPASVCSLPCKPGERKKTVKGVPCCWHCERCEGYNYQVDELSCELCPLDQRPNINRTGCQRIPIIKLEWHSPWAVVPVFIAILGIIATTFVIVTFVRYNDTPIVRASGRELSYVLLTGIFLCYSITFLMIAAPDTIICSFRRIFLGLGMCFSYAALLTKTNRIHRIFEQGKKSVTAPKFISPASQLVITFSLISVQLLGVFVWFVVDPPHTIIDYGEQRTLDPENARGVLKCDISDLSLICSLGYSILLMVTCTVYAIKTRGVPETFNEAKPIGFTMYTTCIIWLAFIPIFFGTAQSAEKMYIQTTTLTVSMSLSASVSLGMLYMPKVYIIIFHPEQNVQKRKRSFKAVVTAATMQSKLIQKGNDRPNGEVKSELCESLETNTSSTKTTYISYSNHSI
On to `COc1ccc(C(=O)Nc2ccc(SC(F)F)cc2)cc1`, for which the z-score is -0.199. Compound `Cc1cccc(N2CC(C(=O)Nc3ccc4c(c3)OCO4)CC2=O)c1C` (stereo not drawn) showed a z-score of 0.145.

In the case of `COc1ccccc1C(=O)NC(=S)Nc1ccc(N2CCCC2)cc1`, the z-score was -0.0718. Turning to `Cc1ccc(S(=O)(=O)NC(C(=O)Oc2ccc3c(C(F)(F)F)cc(=O)oc3c2)c2ccccc2)cc1` (stereo not drawn), the z-score was -0.289. Next, `CC1CCN(S(=O)(=O)c2ccc3c(c2)CCN3C(=O)CCC(=O)O)CC1`: 0.0313; `O=C(O)C(=O)/C(=C\c1cccc2ccccc12)c1ccc2ccccc2n1`: 1.04; `O=C(Nc1ccc(F)cc1)C(c1ccccc1)N1CCN(S(=O)(=O)c2ccc3ccccc3c2)CC1` (stereo not drawn): 0.223.

Take `CCOC(=O)/C(C#N)=C/C1=C(N2CCCC2)CC(C)(CC)OC1` (stereo not drawn): the z-score was -0.501. The figure for `Cc1cccc(NC(=S)NNC(=O)c2ccco2)c1` is 0.0496. The figure for `COC(=O)[C@@H](NC(=O)NCc1ccco1)C(C)C` is -1.12; for `COc1cccc(/C=C2\N=C(c3c(-c4ccccc4)noc3C)OC2=O)c1OC` it is -0.503; for `O=C(CSc1nc2ccccc2s1)N1CCCCC1` it is 0.552. Compound `CC(=O)c1cccc(NC(=O)NCc2cccnc2)c1` showed a z-score of 0.165.

`COC(=O)c1ccccc1NC(=O)C1CC(=O)N(c2ccc(C)cc2)C1` (stereo not drawn) yielded a z-score of -0.265. Regarding `COc1cc2[nH]c(=S)n(N(C(C)=O)C(C)=O)c(=O)c2cc1OC`, the z-score was -0.0747. `CCCOc1ccc(C2C(C(=O)c3ccc(C)o3)=C(O)C(=O)N2CCCn2ccnc2)cc1` (stereo not drawn) had a z-score of 0.368. Next, `O=C(Nc1ccc2nc(-c3ccccn3)[nH]c2c1)C1CCCCC1`: 0.0178; `O=C(Nc1cccc(S(=O)(=O)N2CCOCC2)c1)c1ccco1`: -0.177. The figure for `Cc1ccc(Nc2nc(NCCCN3CCOCC3)nc(N)c2[N+](=O)[O-])cc1C` is 0.122; for `O=C(NC(=S)Nc1cc(C(F)(F)F)ccc1Cl)c1ccccc1` it is 1.04. `COc1cc(/C=C/C(=O)c2ccc(Cl)s2)cc(OC)c1O` returned a z-score of -0.613. Next, `CCOC(=O)c1cccc(NC(=O)CSc2nc(N)cc(N)n2)c1`: -0.636; `CCOCCCNC(=O)C1CCCN(S(=O)(=O)CC)C1` (stereo not drawn): -0.453. Take `O=S(=O)(c1ccc(Cl)cc1)N1CCN(C2CCN(Cc3ccccc3)CC2)CC1`: the z-score is -0.626. Next, `CCn1c(=O)cc(SCC(=O)Nc2ccc3c(c2)OCO3)c2ccccc21`: -0.717; `O=C(Cn1cnc2c(nnn2-c2ccccc2)c1=O)N1CCC(Cc2ccccc2)CC1`: -0.258. Next, `CCOC(=O)c1[nH]c2ccccc2c1CCCN1C(=O)c2ccccc2C1=O`: 0.0197. Next, `CCc1cccc(NC(=O)CN(C)S(=O)(=O)c2cccc3nsnc23)c1`: 0.803.

The compound `CCOC(=O)C1CCCN(S(=O)(=O)c2cc(OCC(N)=O)c(C)cc2Cl)C1` (stereo not drawn) showed a z-score of -0.472. The figure for `C=CCN1C(=O)N(/C=C/C)c2cccc3cccc1c23` is -0.832; for `O=C(Nc1ccc(NC(=O)C2CC2)nc1)c1ccncc1` it is 0.413.

`COc1ccc(N(CC(=O)Nc2ccc3c(c2)OCO3)S(=O)(=O)c2c(C)nn(C)c2C)cc1` came in with a z-score of -0.373.

`CCOC(=O)N/N=C/c1ccc(OCCSc2ccc(Cl)cc2)c(OC)c1` yielded a z-score of 0.417.

`Cc1nn(-c2ccccc2)c(C)c1/C=N/NC(=O)c1cc(-c2cccs2)[nH]n1`: the z-score is -0.434.

`Cc1ccc(Cn2c(SCC(=O)Nc3cc(C)on3)nc3ccccc3c2=O)cc1` had a z-score of 1.07. As for `O=C(Nc1nnc(-c2ccco2)o1)C1CCCCC1`, the z-score is -0.315. Turning to `CC(NC(=O)CNC(=O)OCc1ccccc1)C(=O)N1CC(O)CC1C(=O)OCc1ccccc1` (stereo not drawn) (Cbz-Gly-Ala-[Hyp]-OBn; configuration not given here), the z-score was -0.00981.

For `C/C(=N\NC(=O)c1nc2ccccn2c1C)c1ccc2c(c1)OCO2`, the z-score is -0.032. Next, `O=C1CC(c2cccs2)c2cc3c(cc2N1)OCCO3` (stereo not drawn): -0.318. `Cc1cccc(NC(=O)CCSc2nncn2C)c1` returned a z-score of 1.44. The figure for `COC(=O)c1ccc(C(=O)OC)c(NC(=O)CN(c2ccc3c(c2)OCO3)S(C)(=O)=O)c1` is -0.361.

With `CCO/N=C(/C)c1c(O)cc(-c2ccccc2)n(-c2ccccc2)c1=O`, the z-score was -0.176. For the compound `CC(c1nc2ccccc2c(=O)[nH]1)N1CCN(C)CC1` (stereo not drawn), the z-score amounted to 0.795. The figure for `COc1ccc(N(CC(=O)Nc2cccc(C(F)(F)F)c2)S(C)(=O)=O)cc1` is 1.93; for `Cc1ccc(C2C(C#N)=C(N)Oc3c2c(=O)n(C)c(=O)n3C)cc1` (stereo not drawn) it is -0.275; for `O=C(Nc1ccc2nn(-c3ccccc3)nc2c1)c1cccnc1` it is -0.646.

Turning to `COc1ccc(C(=O)Nc2ccccc2C(=O)O)cc1Cl`, the z-score was -1.43.

For `c1ccc2[nH]c(-c3ccnc4ccccc34)nc2c1`, the z-score was 0.826. Next, `Cn1nnc2c(NCc3ccco3)nccc21`: 1.65; `O=C(CSc1cn(CCNC(=O)c2cccs2)c2ccccc12)NCc1ccccc1`: -0.19.

`COc1cc2nc(SCC(=O)NCc3ccco3)n(Cc3ccc(Cl)cc3)c(=O)c2cc1OC` showed a z-score of 0.933. Next, `COCCn1c(SCC(=O)c2ccc3c(c2)OCCO3)nnc1C(C)C`: -0.149; `CCOC(=O)c1c(NC(=O)c2ccccc2)sc2c(O)c(CN(CC)CC)ccc12`: -0.0937. Next, `CN1CCN(CC(O)c2ccccc2)CC1` (stereo not drawn): 0.0201.

Compound `O=C1NC(=NCc2ccccc2)S/C1=C/c1ccc(O)cc1` yielded a z-score of -0.0843.

`CCSc1nc2c(c(=O)[nH]1)C(c1ccccn1)C1=C(CC(C)(C)CC1=O)N2` (stereo not drawn) registered a z-score of -0.818. The figure for `CCOC(=O)c1ccccc1NC(=O)CN(c1ccccc1OCC)S(C)(=O)=O` is -0.699; for `COc1ccc(/C=C2\CCc3ccccc3C2=O)cc1Cn1cccn1` it is 0.356. Consider `COc1ccc(OC)c(/C=N/NC(=O)c2cc3c(OC)c(OC)ccc3[nH]2)c1`, for which the z-score is -0.17. With `O=C(NCc1ccco1)C1CCCN(S(=O)(=O)c2ccc(Cl)cc2)C1` (stereo not drawn), the z-score was -0.144. The figure for `O=C(Nc1ccc(Cc2ccncc2)cc1)c1ccc(S(=O)(=O)N2CCOCC2)cc1` is -0.273; for `CCCCn1c(SCc2ccc(Cl)cc2)nc2c1c(=O)[nH]c(=O)n2C` it is 0.315; for `CCOc1ccc(Br)cc1/C=N/NC(=O)c1ccncc1` it is -0.159. Next, `Nc1nc(Cl)nc(N(c2ccccc2)c2ccccc2)n1`: -0.0225; `O=C(CCC(=O)N/N=C/c1ccccc1O)NCc1ccccc1`: -0.229; `CCCC(=O)c1c[nH]c(C(=O)NCCc2ccccn2)c1`: -0.0274. In turn, `COc1ccccc1OCC(=O)Nc1cccc(N(C)S(C)(=O)=O)c1` showed a z-score of -0.338.

For the compound `O=C(Nc1nc(-c2ccccc2)c(-c2ccccc2)o1)c1ccc(F)cc1`, the z-score was active: 13.5.

Values taken from PubChem BioAssay AID488969 (Vanderbilt High Throughput Screening Facility, 2010).
